In patent US9920050B2, “Fused heterocyclic compound and pest control use thereof” (Sumitomo Chemical Company, Limited, priority 2013, dated 2018):
Some entries share one result that the patent states for a list of compounds. For at least one compound, name, drawing or mass did not settle the structure.

Columns and labels:
Assay type in all cases: in vivo
Culex pipiens pallens = assay: Test Example 10: Culex pipiens pallens larvae in treated water; conditions: active ingredient concentration 3.5 ppm in water, last-instar larvae, one day later
[1] = system: Adoxophyes orana fasciata; assay: Test Example 7: sprayed apple tree, Adoxophyes orana fasciata larvae; conditions: 500 ppm, 20 mL/cup sprayed on apple tree, first-instar larvae, after 7 days
Plutella xylostella = assay: Test Example 6: sprayed cabbage foliage, Plutella xylostella larvae; conditions: 500 ppm, 20 mL/cup sprayed on cabbage, second instar larvae, 5 days at 25° C.
Aulacophora femoralis = assay: Test Example 12: sprayed cucumber leaf, Aulacophora femoralis larvae; conditions: 500 ppm (Formulation Example 1), 30 mL/cup sprayed on cucumber, second instar larvae, 5 days at 25° C.

SMILES	death rate (Culex pipiens pallens) [%]	death rate [1] [%]	death rate (Plutella xylostella) [%]	death rate (Aulacophora femoralis) [%]
CCS(=O)(=O)c1cc(NC(=O)OCc2ccccc2)cnc1-c1nc2cc(C(F)(F)F)cnc2n1C [compound 1]	≥ 95	≥ 90	≥ 80	–
CCOC(=O)C(=O)Nc1cnc(-c2nc3cc(C(F)(F)F)cnc3n2C)c(S(=O)(=O)CC)c1 [compound 6]	≥ 95	–	≥ 80	–
CCS(=O)(=O)c1cc(NC(=O)C2CCCC2)cnc1-c1nc2cc(C(F)(F)F)cnc2n1C [compound 7]	–	≥ 90	–	≥ 80
CCS(=O)(=O)c1cc(NC2CC2)cnc1-c1nc2cc(C(F)(F)F)cnc2n1C [compound 9]	–	≥ 90	≥ 80	–
CCS(=O)(=O)c1cc(N(C(=O)OC(C)(C)C)C(=O)OC(C)(C)C)cnc1-c1nc2cc(C(F)(F)F)cnc2n1C [compound 11]	–	≥ 90	≥ 80	–
CCS(=O)(=O)c1cc(NC(=O)c2ccco2)cnc1-c1nc2cc(C(F)(F)F)cnc2n1C [compound 12]	≥ 95	–	–	–
CCS(=O)(=O)c1cc(NC(=O)C(=O)OC)cnc1-c1nc2cc(C(F)(F)F)cnc2n1C [compound 14]	≥ 95	–	≥ 80	–
CCS(=O)(=O)c1cc(NNC(=O)OC)cnc1-c1nc2cc(C(F)(F)F)cnc2n1C [compound 15]	–	≥ 90	–	–
CCS(=O)(=O)c1cc(NC(=O)C(=O)N(C)C)cnc1-c1nc2cc(C(F)(F)F)cnc2n1C [compound 16]	≥ 95	–	≥ 80	–
CCS(=O)(=O)c1cc(N(C(C)=O)C2CC2)cnc1-c1nc2cc(C(F)(F)F)cnc2n1C [compound 17]	–	≥ 90	–	–
CCS(=O)(=O)c1cc(NN)cnc1-c1nc2cc(C(F)(F)F)cnc2n1C [compound 19]	≥ 95	≥ 90	≥ 80	–
CCS(=O)(=O)c1cc(NC(=O)C2CC2)cnc1-c1nc2cc(C(F)(F)F)cnc2n1C [compound 22]	≥ 95	≥ 90	≥ 80	–
CCS(=O)(=O)c1cc(NC(=O)c2ccccn2)cnc1-c1nc2cc(C(F)(F)F)cnc2n1C [compound 24]	≥ 95	≥ 90	≥ 80	–
CCS(=O)(=O)c1cc(NCc2ccccn2)cnc1-c1nc2cc(C(F)(F)F)cnc2n1C [compound 26]	–	≥ 90	–	–
CCS(=O)(=O)c1cc(NC(=O)C2CC2)cnc1-c1nc2cc(S(=O)(=O)C(F)(F)F)ccc2o1 [compound 28]	–	–	–	≥ 80
CCS(=O)(=O)c1ccc(NOC)nc1-c1nc2cc(C(F)(F)F)cnc2n1C [compound 30]	≥ 95	≥ 90	≥ 80	–
CCS(=O)(=O)c1ccc(NC2CC2)nc1-c1nc2cc(C(F)(F)F)cnc2n1C [compound 31]	–	≥ 90	–	–
CCS(=O)(=O)c1ccc(NC2CC2)nc1-c1nc2cc([S+]([O-])C(F)(F)F)ccc2o1 (stereo not drawn) [compound 32]	≥ 95	–	≥ 80	≥ 80
CCS(=O)(=O)c1ccc(NCc2ccccc2)nc1-c1nc2cc([S+]([O-])C(F)(F)F)ccc2o1 (stereo not drawn) [compound 34]	≥ 95	–	≥ 80	≥ 80
CCS(=O)(=O)c1ccc(N(C)C(=O)C2CC2)nc1-c1nc2cc(C(F)(F)F)ccc2o1 [compound 39]	≥ 95	–	≥ 80	–
CCS(CC)=Nc1ccc(S(=O)(=O)CC)c(-c2nc3cc([S+]([O-])C(F)(F)F)ccc3o2)n1 (stereo not drawn) [compound 41]	≥ 95	–	≥ 80	–
CCS(=O)(=O)c1ccc(N(C)OC)nc1-c1nc2cc(C(F)(F)F)ccc2o1 [compound 43]	≥ 95	–	≥ 80	–
CCS(=O)(=O)c1ccc(NC(=O)C2CC2)nc1-c1nc2cc([S+]([O-])C(F)(F)F)ccc2o1 (stereo not drawn) [compound 45]	≥ 95	–	≥ 80	–
CCS(=O)(=O)c1ccc(NCc2ccc(Cl)nc2)nc1-c1nc2cc([S+]([O-])C(F)(F)F)ccc2o1 (stereo not drawn) [compound 46]	≥ 95	–	≥ 80	≥ 80
CCS(=O)(=O)c1ccc(NS(C)(=O)=O)nc1-c1nc2cc([S+]([O-])C(F)(F)F)ccc2o1 (stereo not drawn) [compound 48]	–	–	–	≥ 80
CCS(=O)(=O)c1ccc(NS(=O)(=O)C(F)(F)F)nc1-c1nc2cc([S+]([O-])C(F)(F)F)ccc2o1 (stereo not drawn) [compound 49]	–	–	–	≥ 80
CCS(=O)(=O)c1ccc(N=C(c2ccccc2)c2ccccc2)nc1-c1nc2cc([S+]([O-])C(F)(F)F)ccc2o1 (stereo not drawn) [compound 51]	–	–	–	≥ 80
CCS(=O)(=O)c1ccc(N=C(c2ccccc2)c2ccccc2)nc1-c1nc2cc(C(F)(F)F)ccc2o1 [compound 54]	–	–	–	≥ 80
